Data as given in PubChem BioAssay AID624172 (National Center for Advancing Translational Sciences (NCATS), 2012).
The campaign covered roughly 380,000 compounds. About 25 (0.007%) were called active. The inconclusive results got no clear call from the source; some entries with a clear call stand among them for comparison. Calls come from the whole dose curve; as a rule, active = well fitted activation curve with a large enough effect; inconclusive = small, poorly fitted or top-dose-only effect; inactive = no such curve, though single readings can be large or run the other way. Potencies of inconclusive entries are left out as doubtful fits.

Biological target: Glucagon-like peptide 1 receptor (Homo sapiens) (UniProt P43220)
Assay: qHTS of GLP-1 Receptor Agonists; for activation: % of control where 0% means no effect
Settings: HEK293 GLP-1R CRE-luciferase, luminescence, 4-6 h, cells express a hypersensitive GLP-1R form; activation: at 45.6 µM (top of the series) unless noted
Potency is the fitted concentration of half-maximal effect; tags give direction and shape of the fitted curve.

UniProt P43220, sequence (P43220 whole entry, looked up): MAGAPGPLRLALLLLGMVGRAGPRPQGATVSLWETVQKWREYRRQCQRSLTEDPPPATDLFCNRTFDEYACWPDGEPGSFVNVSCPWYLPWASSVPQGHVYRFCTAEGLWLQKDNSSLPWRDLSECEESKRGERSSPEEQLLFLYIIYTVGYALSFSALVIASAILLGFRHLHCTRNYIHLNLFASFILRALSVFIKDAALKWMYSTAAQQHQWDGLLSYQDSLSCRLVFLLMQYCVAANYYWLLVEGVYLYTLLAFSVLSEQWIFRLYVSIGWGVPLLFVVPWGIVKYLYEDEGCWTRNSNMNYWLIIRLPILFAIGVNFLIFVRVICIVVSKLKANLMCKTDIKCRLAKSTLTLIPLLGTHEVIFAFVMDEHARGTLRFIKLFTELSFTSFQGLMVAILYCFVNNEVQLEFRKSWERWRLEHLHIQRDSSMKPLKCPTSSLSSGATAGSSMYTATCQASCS

Row | SMILES | Potency | activation
1 | CC(C)(C)C(O)/C=C/c1ccc2c(c1)OCO2 (stereo not drawn) | inconclusive [activator, partial curve, poor fit] | 
2 | CCCn1c2c(c(O)c(C(=O)NC)c1=O)CCCC2 | inconclusive [activator, single point] | 
3 | CCC(c1nnnn1-c1ccc2c(c1)OCCO2)N1CCN(C(=O)C2CCCO2)CC1 (stereo not drawn) |  | inactive: 3.47%
4 | CN(C)S(=O)(=O)N1CCN(S(=O)(=O)N(C)C)CC1 |  | inconclusive: 47.1% [activator]
5 | C(=C\c1ccccc1)/CSc1nnc(-c2ccncc2)n1Cc1ccco1 |  | inactive: 25.4%
6 | Cc1c(NC(=O)C(C)OC(=O)c2c3c(nc4ccccc24)CCC3)c(=O)n(-c2ccccc2)n1C (stereo not drawn) |  | inconclusive: 38.9% [activator]
7 | COc1ccc(/C=N/NC(=O)Cc2ccc(Cl)cc2)cc1OC | inconclusive [activator, full curve] | 
8 | C=CCNC(=O)c1oc2ccc(S(=O)(=O)N(CC)CC)cc2c1C | inconclusive [activator, single point] | 
9 | COc1cccc(C2c3[nH]c4ccccc4c3C[C@H]3C(=O)N(c4ccccc4C(=O)N4CCCC4C(=O)O)C(=O)N23)c1 (stereo partly drawn) | inconclusive [activator, partial curve, poor fit] | 
10 | Cc1nc(SCc2nc3ccccc3[nH]2)c2oc3cc(Br)ccc3c2n1 | inconclusive [activator, partial curve, poor fit] | 
11 | CCC1SC2=NC(C)=C(C(=O)OCC(C)C)C(/C=C/c3ccccc3OC)N2C1=O (stereo not drawn) |  | inactive: 24.8%
12 | CN(C)CCCn1c(-c2ccc(Cl)cc2)csc1=Nc1ccccc1 |  | inactive: 15.8%
13 | Cn1nnnc1SCC1=C(C(=O)O)N2C(=O)C(NC(=O)C3CC3c3ccccc3)C2SC1 (stereo not drawn) |  | inactive: -5.23%
14 | Cc1cc(=O)n2cn[nH]c2n1 |  | inactive: 0.289%
15 | CC(=O)N1c2ccccc2Oc2cc3ccccc3cc21 | inconclusive [activator, single point] | 
16 | CCCCCCCC[n+]1cccc(C(=O)N(CC)CC)c1 |  | inactive: -3.5%
17 | COc1ccc(Nc2nc3cc(C)ccc3cc2C#N)cc1 | inconclusive [activator, single point] | 
18 | COCCOC(=O)c1c(C)oc2ccc(OCC=C(C)C)cc12 |  | inactive: 11.2%
19 | NC(=O)N=Nc1c(O)[nH]c2ccc([N+](=O)[O-])cc12 |  | inactive: 2.51%
20 | Cc1cc(/C=C2\C(=N)N3N=C(C(C)C)SC3=NC2=O)c(C)n1Cc1ccccc1 |  | inactive: -0.352%
21 | CSc1cnc2c(=O)n(C)c(=O)[nH]c2n1 |  | inactive: -1.28%
22 | Cc1cccc(C(=O)n2c(=S)nc3cc(C)ccn32)c1 |  | inactive: 4.49%
23 | CC1CCN(C(=O)CSCC(=O)Nc2nc(-c3cccs3)cs2)CC1 | inconclusive [activator, partial curve, poor fit] | 
24 | COc1cccc(NC(=O)CCC2CCN(C(=O)c3sccc3C)CC2)c1 |  | inactive: -3.4%

Row | SMILES | Potency | activation
25 | C=CCn1c(SCC(N)=O)nnc1-c1cc2c(s1)CCC(CC)C2 (stereo not drawn) | inconclusive [activator, single point] | 
26 | C[S+](CC[C@H](N)C(=O)O)C[C@H]1O[C@@H](n2cnc3c(N)ncnc32)[C@H](O)[C@@H]1O (stereo partly drawn) |  | inconclusive: 39.3% [activator]
27 | O=c1n(Cc2ccccc2)nc2n1-c1cc(Cl)ccc1OC2 |  | inactive: 2.4%
28 | COc1cc(=O)n(C)c2c(OCC(O)C(C)(C)O)cccc12 (stereo not drawn) | inconclusive [activator, single point] | 
29 | CN(Cc1ccc(Cl)c(Cl)c1)C(=O)C1CSC2(C)CCC(=O)N12 (stereo not drawn) |  | inactive: 8.8%
30 | Cc1cc(NC(=O)CCS(=O)(=O)c2nc(-c3ccccc3)cc(C(F)(F)F)n2)no1 |  | inactive: -25.8%
31 | Cc1ccc(C(=O)Nc2cccc(N(C)S(C)(=O)=O)c2)cc1S(=O)(=O)Nc1ccccc1 |  | inactive: 1.18%
32 | CC(C)(C)c1ccc(C(=O)NNC(=O)C2CCCCC2)cc1 |  | inactive: -1.01%
33 | N#Cc1cc2c(nc1SC1CCCCC1O)CCCC2 (stereo not drawn) | inconclusive [activator, single point] | 
34 | CCC(C)(C)C1CCc2[nH]nc(C(=O)NCC3CC3)c2C1 (stereo not drawn) | inconclusive [activator, partial curve, poor fit] | 
35 | O=C(COc1cc(Cl)c(Cl)cc1Cl)NCCN1CCOCC1 | inconclusive [activator, single point] | 
36 | CCOC(=O)c1sc(N(Cc2ccccc2)C(=O)CSc2nnc(C3CC3)n2N)nc1C | inconclusive [activator, partial curve, poor fit] | 
37 | CSCCC(NS(=O)(=O)c1ccc2c(c1)oc(=O)n2C)C(=O)NCc1ccccc1 (stereo not drawn) |  | inconclusive: 35.5% [activator]
38 | C#CCOCCOCCOCCNc1nc(N2CCN(C(=O)CCCCCCCCCCNC(=O)Cn3cc(C[C@@H](C)O)nn3)CC2)nc(N2CCN(C(=O)CCCCCCCCCCNC(=O)[C@@H]([C@H](C)O)n3cc(C)nn3)CC2)n1 | inconclusive [activator, partial curve, poor fit] | 
39 | Cc1ccc(-c2c(C(=O)NCc3ccc(F)cc3)oc(=O)c3ccccc23)cc1 | inactive | 
40 | Cc1ccc(C2CC(c3cccs3)=NN2C(=O)CCl)cc1 (stereo not drawn) |  | inactive: 0.405%
41 | Cc1ccc(/C=N/Nc2nnc(Cl)c3ccccc23)cc1 | inconclusive [activator, partial curve] | 
42 | CCOC(=O)CCCCCC(=O)Nc1ccc2c(c1)CC(=O)N([C@@H](C)CO)C[C@H](C)[C@@H](CN(C)C(=O)Nc1ccc3c(c1)OCO3)O2 |  | inactive: -4.18%
43 | CC(C)(C)NCC(O)c1ccc(O)c(CO)c1 (stereo not drawn) |  | inconclusive: 35.6% [activator]
44 | COc1ccc(-c2nnc(-c3ccc(Br)o3)o2)cc1OC | inconclusive [activator, partial curve, poor fit] | 
45 | Cc1cc(NS(=O)(=O)c2ccc(NC(=O)COc3ccc(Br)cc3)cc2)nc(C)n1 |  | inactive: -2.01%
46 | COC(=O)c1sc2nc(N3CCCCC3)c3c(c2c1N)CCCC3 |  | inactive: 1.06%
47 | COc1ccccc1OCCSc1nnnn1C1CCCCC1 | inconclusive [activator, single point] | 
48 | Cc1ccccc1OCCNCC(C)O (stereo not drawn) |  | inactive: -1.54%
